# Among all 310,000 compounds or so, about 14,000 (4.5%) showed an effect of 50% or more. The effect is printed as a negative number. The list shows a part of the results.
# Molecular target: human ether-à-go-go-related gene (hERG) potassium channel (human, UniProt Q12809)
# Assay: primary screen, population patch clamp on CHO cells stably expressing hERG
# 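Note: peak tail current of the secondary pulse compared with the same well before compound.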
# human ether-à-go-go-related gene (hERG) potassium channel, sequence (Q12809 whole entry, looked up): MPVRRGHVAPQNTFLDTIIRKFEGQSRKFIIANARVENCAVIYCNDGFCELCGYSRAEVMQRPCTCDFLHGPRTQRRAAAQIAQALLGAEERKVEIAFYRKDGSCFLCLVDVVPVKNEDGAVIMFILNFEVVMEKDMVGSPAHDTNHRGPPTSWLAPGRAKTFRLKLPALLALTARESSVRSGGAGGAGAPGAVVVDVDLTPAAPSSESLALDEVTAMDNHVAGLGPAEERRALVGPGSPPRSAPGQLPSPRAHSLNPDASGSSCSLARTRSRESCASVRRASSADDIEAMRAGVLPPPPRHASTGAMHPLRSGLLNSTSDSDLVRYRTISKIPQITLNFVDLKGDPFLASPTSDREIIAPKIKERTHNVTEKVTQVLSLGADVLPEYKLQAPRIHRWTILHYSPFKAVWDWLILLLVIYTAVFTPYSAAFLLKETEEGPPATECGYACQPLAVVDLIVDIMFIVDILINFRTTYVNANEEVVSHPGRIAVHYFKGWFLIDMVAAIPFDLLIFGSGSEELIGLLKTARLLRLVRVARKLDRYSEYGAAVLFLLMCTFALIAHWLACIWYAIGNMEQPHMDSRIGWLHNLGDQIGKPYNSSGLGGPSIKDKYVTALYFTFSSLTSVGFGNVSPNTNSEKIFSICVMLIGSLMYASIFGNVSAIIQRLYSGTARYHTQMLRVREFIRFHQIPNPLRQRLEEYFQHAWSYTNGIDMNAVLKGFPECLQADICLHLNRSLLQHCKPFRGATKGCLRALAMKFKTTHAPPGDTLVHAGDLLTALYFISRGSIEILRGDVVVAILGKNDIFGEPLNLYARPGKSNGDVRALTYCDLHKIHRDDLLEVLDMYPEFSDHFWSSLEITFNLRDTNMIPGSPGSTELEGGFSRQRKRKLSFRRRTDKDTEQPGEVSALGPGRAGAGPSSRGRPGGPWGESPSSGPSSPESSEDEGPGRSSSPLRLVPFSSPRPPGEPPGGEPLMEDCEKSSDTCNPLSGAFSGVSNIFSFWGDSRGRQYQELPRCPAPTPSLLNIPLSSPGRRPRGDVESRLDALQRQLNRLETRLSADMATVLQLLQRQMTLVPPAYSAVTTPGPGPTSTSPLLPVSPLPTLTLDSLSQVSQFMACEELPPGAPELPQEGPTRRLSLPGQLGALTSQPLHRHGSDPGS
row,Compound,"hERG current change (%, negative = inhibition) at 10uM"
1,O=C(CN1C(=O)C2CCCCC2C1=O)OCC(=O)c1ccc(F)cc1 (centres unmarked),1.85%
2,C/C(=N\Nc1cccc(C(=O)O)c1)c1ccc2c(c1)Nc1ccccc1S2,8.98%
3,CC(NC(=O)C12CC3CC(CC(C3)C1)C2)C(=O)N/N=C/C1=C(N2CCOCC2)C(=C\c2ccccc2)/CC1 (centres unmarked),-28.8%
4,O=C(CS(=O)(=O)Cc1ccccc1)Nc1nnc(C(F)(F)F)s1,25%
5,CC1CN(C)C(C)c2c1oc1ccc(N)cc21.O=C(O)/C=C/C(=O)O (centres unmarked),-28.4%
6,Cc1ccc(N2C(=O)NC(=O)/C(=C\C=C\c3ccco3)C2=O)cc1,25%
7,C/C=C/c1ccc(OCC(=O)Nc2cc(C(F)(F)F)ccc2N2CCOCC2)c(OC)c1,15.6%
8,COc1cc(C(=O)NNC(=O)CCOc2cccc(Br)c2)cc(OC)c1OC,-19.4%
9,Cc1ccc(S(=O)(=O)N2CCN(C(=O)CN3CCCSc4ccccc43)CC2)cc1,-17.9%
10,Nc1nc(Sc2ccc(C(F)(F)F)cn2)n[nH]1,17%
11,CCN1CCN(c2cc(C)c3cc(NC(=S)N4CCN(c5ccc(F)cc5)CC4)ccc3n2)CC1,-0.511%
12,Cc1ccc(C(=O)c2oc3ccc(Cl)cc3c2NC(=O)CN2CCN(C)CC2)cc1,-74.3%
13,O=C(CCNS(=O)(=O)c1cccc2nsnc12)N1CC(=O)N(CCc2ccccc2)C(=O)C1,-43%
14,CC1CCc2c(sc(NC(=O)c3ccccc3C(=O)O)c2C#N)C1 (centres unmarked),-0.906%
15,Cc1cc(C(=O)CSc2nc3ccc(Cl)cc3[nH]2)c(C)n1CC1CCCO1 (centres unmarked),-2.01%
16,CN(C)S(=O)(=O)c1ccc(C(=O)NCC2CC2(Cl)Cl)cc1 (centres unmarked),5.21%
17,Cc1cc(-n2cccn2)ccc1CN1CCN(C2CCCC2)C(CCO)C1 (centres unmarked),-73.5%
18,CC1(C)C2CCC1(CS(=O)(=O)NCc1ccc(C(=O)O)cc1)C(=O)C2 (centres unmarked),11.2%
19,CCC(=O)N1CCN(c2ccccc2NC(=S)NC(=O)c2ccco2)CC1,-47.5%
20,N/C(=N\OC(=O)c1ccc(Cl)cc1)c1ccc(Cl)cc1,7.85%
21,COC1CCCN(C(=O)c2ccc3oc(Cc4ccc(Cl)cc4)nc3c2)C1 (centres unmarked),-17.5%
22,Cc1cccc(NC(=O)CSc2nnnn2-c2ccc3c(c2)OCCO3)n1,0.764%
23,Cc1ccccc1OCCC(=O)Nc1ccc(N2CCOCC2)cc1N1CCOCC1,-27.6%
